We go through 5 molecules from article PMC4914680 (Antimicrobial Agents and Chemotherapy, 2016).

Type in all cases: cell-based
Assay [1] deals with HIV-1 NL4-3 V370M variant.
Assay [2] relates to HIV-1 NL4-3 V370A variant.
For assay [3], the system named is HIV-1 NL4-3 V362I variant.
Assay [4] relates to HIV-1 NL4-3 T371A variant. The settings on record: Human immunodeficiency virus 1, NL43, MT2, read-out: EC50 (SD).
In assay [5] the test system is HIV-1 NL4-3 V370A/ΔT371 variant. The following applies: Human immunodeficiency virus 1, NL43, MT2, read-out: EC50 (SD).
The subject of assay [6] is HIV-1 NL4-3 ΔT371 variant. The following applies: Human immunodeficiency virus 1, NL43, MT2, read-out: EC50 (SD).
[7] abbreviates: Human immunodeficiency virus 1, NL43, MT2.
Where [8] appears, read: Human immunodeficiency virus 1, NL43, MT2, read-out: EC50 (SD).

Read-outs that look alike come from different tables or passages of the source. Bounds are passed on as bounds.

With `Cc1c(O)cccc1C(=O)N[C@@H](CSc1ccccc1)[C@H](O)CN1C[C@H]2CCCC[C@H]2C[C@H]1C(=O)NC(C)(C)C` [NFV], the EC50 – broadly, the concentration giving half of the maximal effect – in assay [1] (setting [7]) came out at 5 nM; in assay [2] (setting [7]) it was 4 nM; in assay [3] (setting [7]), 5 nM.

Consider `C=C(C)[C@@H]1CC[C@]2(C(=O)NCCc3ccccn3)CC[C@]3(C)[C@H](CC[C@@H]4[C@@]5(C)CC=C(c6ccc(C(=O)O)cc6)C(C)(C)[C@@H]5CC[C@]43C)[C@@H]12` [BMS-2], for which the EC50 amounted to 61 nM in assay [1] (setting [8]); 19 nM in assay [4]; 188 nM in assay [5]; 76 nM in assay [3] (setting [8]); 38 nM in assay [6].

In the case of `C=C(C)[C@@H]1CC[C@]2(NCCN3CCS(=O)(=O)CC3)CC[C@]3(C)[C@H](CC[C@@H]4[C@@]5(C)CC=C(c6ccc(C(=O)O)cc6)C(C)(C)[C@@H]5CC[C@]43C)[C@@H]12` [BMS-955176], the EC50 stood at 2.8 nM in assay [1] (setting [8]); 2 nM in assay [4]; 2.7 nM in assay [2] (setting [8]); 6.6 nM in assay [5]; 4.5 nM in assay [3] (setting [8]); 7.3 nM in assay [6].

As for `C=C(C)[C@@H]1CC[C@]2(C(=O)O)CC[C@]3(C)[C@H](CC[C@@H]4[C@@]5(C)CC=C(c6ccc(C(=O)O)cc6)C(C)(C)[C@@H]5CC[C@]43C)[C@@H]12` [BMS-1], the values for the EC50 in assay [1] (setting [8]), in assay [4] and in assay [5] were greater than 4000 nM, 28 nM and greater than 10000 nM, respectively.

As for `C=C(C)[C@@H]1CC[C@]2(C(=O)NCCN(C)C)CC[C@]3(C)[C@H](CC[C@@H]4[C@@]5(C)CC=C(c6ccc(C(=O)O)cc6)C(C)(C)[C@@H]5CC[C@]43C)[C@@H]12` [BMS-3], the EC50 in assay [1] (setting [8]) is 10 nM; in assay [4], 3.4 nM; in assay [3] (setting [8]), 18 nM.
